Assay results from patent publication US6077680A (The University of Florida, dated 2000).
Part of at least one peptide drawing is inferred or uncertain, most often the ends.

Test system: rat brain membrane K channels (primarily Kv1.2)
Assay type: binding

Structure (SMILES) | Equipotent Molar Ratio (Analog IC50 /ShK IC50) | Free Energy Differ. of Binding ΔF | Difference of Free Energy of Binding | IC50 Ratio | ΔF | further results
CC[C@H](C)[C@@H]1NC(=O)[C@@H](NC(=O)[C@H](CO)NC(=O)[C@@H](N)CCCNC(=N)N)CSSC[C@@H](C(=O)O)NC(=O)[C@H]([C@@H](C)O)NC(=O)CNC(=O)[C@@H]2CSSC[C@@H]3NC(=O)[C@H](CCC(N)=O)NC(=O)[C@H](Cc4ccccc4)NC(=O)[C@H](C)NC(=O)[C@H]([C@@H](C)O)NC(=O)[C@H](CSSC[C@H](NC(=O)[C@H](Cc4ccccc4)NC(=O)[C@H](CO)NC(=O)[C@H](CC(C)C)NC(=O)[C@H](CCCNC(=N)N)NC(=O)[C@H](Cc4ccc(O)cc4)NC(=O)[C@H](CCCCN)NC(=O)[C@H](CCSC)NC(=O)[C@H](CO)NC(=O)[C@H](Cc4c[nH]cn4)NC(=O)[C@H](CCCCN)NC3=O)C(=O)N[C@@H](CCCNC(=N)N)C(=O)N[C@@H](CCCCN)C(=O)N[C@@H]([C@@H](C)O)C(=O)N2)NC(=O)[C@H](CCC(=O)O)NC(=O)[C@H](CO)NC(=O)[C@H](CCCCN)NC(=O)[C@@H]2CCCN2C(=O)[C@H]([C@@H](C)CC)NC(=O)[C@H]([C@@H](C)O)NC(=O)[C@H](CC(=O)O)NC1=O [R11E] | 30.8 | 2.01 | – | – | – | decrease in affinity for rat brain channels relative to ShK toxin: 30 fold
CC[C@H](C)[C@@H]1NC(=O)[C@@H](NC(=O)[C@H](CO)NC(=O)[C@@H](N)CCCNC(=N)N)CSSC[C@@H](C(=O)O)NC(=O)[C@H]([C@@H](C)O)NC(=O)CNC(=O)[C@@H]2CSSC[C@@H]3NC(=O)[C@H](CCC(N)=O)NC(=O)[C@H](Cc4ccccc4)NC(=O)[C@H](C)NC(=O)[C@H]([C@@H](C)O)NC(=O)[C@H](CSSC[C@H](NC(=O)[C@H](Cc4ccccc4)NC(=O)[C@H](CO)NC(=O)[C@H](CC(C)C)NC(=O)[C@H](CCCNC(=N)N)NC(=O)[C@H](Cc4ccc(O)cc4)NC(=O)[C@H](CCCCN)NC(=O)[C@H](CCSC)NC(=O)[C@H](CO)NC(=O)[C@H](Cc4c[nH]cn4)NC(=O)[C@H](CCCCN)NC3=O)C(=O)N[C@@H](CCCNC(=N)N)C(=O)N[C@@H](CCCCN)C(=O)N[C@@H]([C@@H](C)O)C(=O)N2)NC(=O)[C@H](CCCNC(=N)N)NC(=O)[C@H](CO)NC(=O)[C@H](CCCCN)NC(=O)[C@H](C)NC(=O)[C@H]([C@@H](C)CC)NC(=O)[C@H]([C@@H](C)O)NC(=O)[C@H](CC(=O)O)NC1=O [P8A] | – | – | 0.38 | 1.9 | – | –
CC[C@H](C)[C@@H]1NC(=O)[C@@H](NC(=O)[C@H](CO)NC(=O)[C@@H](N)CCCNC(=N)N)CSSC[C@@H](C(=O)O)NC(=O)[C@H]([C@@H](C)O)NC(=O)CNC(=O)[C@@H]2CSSC[C@@H]3NC(=O)[C@H](CCC(N)=O)NC(=O)[C@H](Cc4ccccc4)NC(=O)[C@H](C)NC(=O)[C@H]([C@@H](C)O)NC(=O)[C@H](CSSC[C@H](NC(=O)[C@H](Cc4ccccc4)NC(=O)[C@H](CO)NC(=O)[C@H](CC(C)C)NC(=O)[C@H](CCCNC(=N)N)NC(=O)[C@H](C)NC(=O)[C@H](CCCCN)NC(=O)[C@H](CCSC)NC(=O)[C@H](CO)NC(=O)[C@H](Cc4c[nH]cn4)NC(=O)[C@H](CCCCN)NC3=O)C(=O)N[C@@H](CCCNC(=N)N)C(=O)N[C@@H](CCCCN)C(=O)N[C@@H]([C@@H](C)O)C(=O)N2)NC(=O)[C@H](CCCNC(=N)N)NC(=O)[C@H](CO)NC(=O)[C@H](CCCCN)NC(=O)[C@@H]2CCCN2C(=O)[C@H]([C@@H](C)CC)NC(=O)[C@H]([C@@H](C)O)NC(=O)[C@H](CC(=O)O)NC1=O [Y23A] | – | – | 2.74 | 108 | – | decrease in affinity for rat brain channels relative to ShK toxin: > 100 fold; increase in relative free energy of binding: > 2.8 kcal/mol
CC[C@H](C)[C@@H]1NC(=O)[C@@H](NC(=O)[C@H](CO)NC(=O)[C@@H](N)CCCNC(=N)N)CSSC[C@@H](C(=O)O)NC(=O)[C@H]([C@@H](C)O)NC(=O)CNC(=O)[C@@H]2CSSC[C@@H]3NC(=O)[C@H](CCC(N)=O)NC(=O)[C@H](Cc4ccccc4)NC(=O)[C@H](C)NC(=O)[C@H](C)NC(=O)[C@H](CSSC[C@H](NC(=O)[C@H](Cc4ccccc4)NC(=O)[C@H](CO)NC(=O)[C@H](CC(C)C)NC(=O)[C@H](CCCNC(=N)N)NC(=O)[C@H](Cc4ccc(O)cc4)NC(=O)[C@H](CCCCN)NC(=O)[C@H](CCSC)NC(=O)[C@H](CO)NC(=O)[C@H](Cc4c[nH]cn4)NC(=O)[C@H](CCCCN)NC3=O)C(=O)N[C@@H](CCCNC(=N)N)C(=O)N[C@@H](CCCCN)C(=O)N[C@@H]([C@@H](C)O)C(=O)N2)NC(=O)[C@H](CCCNC(=N)N)NC(=O)[C@H](CO)NC(=O)[C@H](CCCCN)NC(=O)[C@@H]2CCCN2C(=O)[C@H]([C@@H](C)CC)NC(=O)[C@H]([C@@H](C)O)NC(=O)[C@H](CC(=O)O)NC1=O [T13A] | – | – | 0.31 | 1.7 | – | –
CC[C@H](C)[C@@H]1NC(=O)[C@@H](NC(=O)[C@H](CO)NC(=O)[C@@H](N)CCCNC(=N)N)CSSC[C@@H](C(=O)O)NC(=O)[C@H]([C@@H](C)O)NC(=O)CNC(=O)[C@@H]2CSSC[C@@H]3NC(=O)[C@H](CCC(N)=O)NC(=O)[C@H](Cc4ccccc4)NC(=O)[C@H](C)NC(=O)[C@H]([C@@H](C)O)NC(=O)[C@H](CSSC[C@H](NC(=O)[C@H](Cc4ccccc4)NC(=O)[C@H](CO)NC(=O)[C@H](CC(C)C)NC(=O)[C@H](CCCNC(=N)N)NC(=O)[C@H](Cc4ccc(O)cc4)NC(=O)[C@H](CCCCNC(N)=O)NC(=O)[C@H](CCSC)NC(=O)[C@H](CO)NC(=O)[C@H](Cc4c[nH]cn4)NC(=O)[C@H](CCCCN)NC3=O)C(=O)N[C@@H](CCCNC(=N)N)C(=O)N[C@@H](CCCCN)C(=O)N[C@@H]([C@@H](C)O)C(=O)N2)NC(=O)[C@H](CCCNC(=N)N)NC(=O)[C@H](CO)NC(=O)[C@H](CCCCN)NC(=O)[C@@H]2CCCN2C(=O)[C@H]([C@@H](C)CC)NC(=O)[C@H]([C@@H](C)O)NC(=O)[C@H](CC(=O)O)NC1=O [K22Homocit] | – | – | – | > 500 | > 3.65 | Equipotent Molar Ration (Analog IC50 /ShK IC50) Rat brain: > 500
CC[C@H](C)[C@@H]1NC(=O)[C@@H](NC(=O)[C@H](CO)NC(=O)[C@H](CCCNC(=N)N)NC(C)=O)CSSC[C@@H](C(=O)O)NC(=O)[C@H]([C@@H](C)O)NC(=O)CNC(=O)[C@@H]2CSSC[C@@H]3NC(=O)[C@H](CCC(N)=O)NC(=O)[C@H](Cc4ccccc4)NC(=O)[C@H](C)NC(=O)[C@H]([C@@H](C)O)NC(=O)[C@H](CSSC[C@H](NC(=O)[C@H](Cc4ccccc4)NC(=O)[C@H](CO)NC(=O)[C@H](CC(C)C)NC(=O)[C@H](CCCNC(=N)N)NC(=O)[C@H](Cc4ccc(O)cc4)NC(=O)[C@H](CCCCN)NC(=O)[C@H](CCSC)NC(=O)[C@H](CO)NC(=O)[C@H](Cc4c[nH]cn4)NC(=O)[C@H](CCCCN)NC3=O)C(=O)N[C@@H](CCCNC(=N)N)C(=O)N[C@@H](CCCCN)C(=O)N[C@@H]([C@@H](C)O)C(=O)N2)NC(=O)[C@H](CCCNC(=N)N)NC(=O)[C@H](CO)NC(=O)[C@H](CCCCN)NC(=O)[C@@H]2CCCN2C(=O)[C@H]([C@@H](C)CC)NC(=O)[C@H]([C@@H](C)O)NC(=O)[C@H](CC(=O)O)NC1=O [N^α Ac] | 1.0 | 0.0 | – | 1.0 | 0.0 | –
CC[C@H](C)[C@@H]1NC(=O)[C@@H](NC(=O)[C@H](CO)NC(=O)[C@@H](N)CCCNC(=N)N)CSSC[C@@H](C(=O)O)NC(=O)[C@H]([C@@H](C)O)NC(=O)CNC(=O)[C@@H]2CSSC[C@@H]3NC(=O)[C@H](CCC(N)=O)NC(=O)[C@H](Cc4ccccc4)NC(=O)[C@H](C)NC(=O)[C@H]([C@@H](C)O)NC(=O)[C@H](CSSC[C@H](NC(=O)[C@H](Cc4ccccc4)NC(=O)[C@H](CO)NC(=O)[C@H](CC(C)C)NC(=O)[C@H](CCC(=O)O)NC(=O)[C@H](Cc4ccc(O)cc4)NC(=O)[C@H](CCCCN)NC(=O)[C@H](CCSC)NC(=O)[C@H](CO)NC(=O)[C@H](Cc4c[nH]cn4)NC(=O)[C@H](CCCCN)NC3=O)C(=O)N[C@@H](CCCNC(=N)N)C(=O)N[C@@H](CCCCN)C(=O)N[C@@H]([C@@H](C)O)C(=O)N2)NC(=O)[C@H](CCCNC(=N)N)NC(=O)[C@H](CO)NC(=O)[C@H](CCCCN)NC(=O)[C@@H]2CCCN2C(=O)[C@H]([C@@H](C)CC)NC(=O)[C@H]([C@@H](C)O)NC(=O)[C@H](CC(=O)O)NC1=O [compound 102] | – | – | – | – | – | Analog IC50 /ShK IC50: 2.65
CC[C@H](C)[C@@H]1NC(=O)[C@@H](NC(=O)[C@H](CO)NC(=O)[C@@H](N)CCCNC(=N)N)CSSC[C@@H](C(=O)O)NC(=O)[C@H]([C@@H](C)O)NC(=O)CNC(=O)[C@@H]2CSSC[C@@H]3NC(=O)[C@H](CCC(=O)O)NC(=O)[C@H](Cc4ccccc4)NC(=O)[C@H](C)NC(=O)[C@H]([C@@H](C)O)NC(=O)[C@H](CSSC[C@H](NC(=O)[C@H](Cc4ccccc4)NC(=O)[C@H](CO)NC(=O)[C@H](CC(C)C)NC(=O)[C@H](CCCNC(=N)N)NC(=O)[C@H](Cc4ccc(O)cc4)NC(=O)[C@H](CCCCN)NC(=O)[C@H](CCSC)NC(=O)[C@H](CO)NC(=O)[C@H](Cc4c[nH]cn4)NC(=O)[C@H](CCCCN)NC3=O)C(=O)N[C@@H](CCCNC(=N)N)C(=O)N[C@@H](CCCCN)C(=O)N[C@@H]([C@@H](C)O)C(=O)N2)NC(=O)[C@H](CCCNC(=N)N)NC(=O)[C@H](CO)NC(=O)[C@H](CCCCN)NC(=O)[C@@H]2CCCN2C(=O)[C@H]([C@@H](C)CC)NC(=O)[C@H]([C@@H](C)O)NC(=O)[C@H](CC(=O)O)NC1=O [Q16E] | 2.8 | 0.60 | – | – | – | –
CC[C@H](C)[C@@H]1NC(=O)[C@@H](NC(=O)[C@H](CO)NC(=O)[C@@H](N)CCCNC(=N)N)CSSC[C@@H](C(=O)O)NC(=O)[C@H]([C@@H](C)O)NC(=O)CNC(=O)[C@@H]2CSSC[C@@H]3NC(=O)[C@H](CCC(N)=O)NC(=O)[C@H](Cc4ccc(N=[N+]=[N-])cc4)NC(=O)[C@H](C)NC(=O)[C@H]([C@@H](C)O)NC(=O)[C@H](CSSC[C@H](NC(=O)[C@H](Cc4ccccc4)NC(=O)[C@H](CO)NC(=O)[C@H](CC(C)C)NC(=O)[C@H](CCCNC(=N)N)NC(=O)[C@H](Cc4ccc(O)cc4)NC(=O)[C@H](CCCCN)NC(=O)[C@H](CCSC)NC(=O)[C@H](CO)NC(=O)[C@H](Cc4c[nH]cn4)NC(=O)[C@H](CCCCN)NC3=O)C(=O)N[C@@H](CCCNC(=N)N)C(=O)N[C@@H](CCCCN)C(=O)N[C@@H]([C@@H](C)O)C(=O)N2)NC(=O)[C@H](CCCNC(=N)N)NC(=O)[C@H](CO)NC(=O)[C@H](CCCCN)NC(=O)[C@@H]2CCCN2C(=O)[C@H]([C@@H](C)CC)NC(=O)[C@H]([C@@H](C)O)NC(=O)[C@H](CC(=O)O)NC1=O [F15p-azido-Phe] | – | – | – | 1.4 | 0.2 | –
